# In the supplement of paper PMC12217912:
# Some of the results follow. The full chains were built here from the parent and the listed change. Values near 0.05 are background.
# B1: TEV protease; numbered along this chain (parent)
# chain: MGESLFKGPRDYNPISSSICHLTNESDGHTTSLYGIGFGPFIITNKHLFRRNNGTLVVQSLHGVFKVKDTTTLQQHLVDGRDMIIIRMPKDFPPFPQKLKFREPQREERICLVTTNFQTKSMSSMVSDTSCTFPSGDGIFWKHWIQTKDGQCGSPLVSTRDGFIVGIHSASNFTNTNNYFTSVPKNFMELLTNQEAQQWVSGWRLNADSVLWGGHKVFMVKPEEPFQPVKEATQL
# Variants of: B1
# Experiment: raw area under fraction-flipped curve 0-4 h after induction (AUC4h, not background-subtracted), DNA-recorder readout of cleavage of the substrate (dimensionless); higher = more cleavage of the substrate by the protease variant
# Settings: temperature: 34 °C; time window: 0-4 h after rhamnose induction
# Experimental: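 In vivo DNA recorder in E. coli TOP10(DE3) ΔrhaA at 34 °C. Each TEVp single-site mutant (parent TEVp 0) is paired with a single-site variant of the 7-mer TEVs (canonical ENLYFQ|S). The substrate sits between flexible linkers in a Bxb1-sfGFP-TEVs-SsrA fusion, so cleavage stabilises Bxb1 and speeds flipping of a recombination array, read by NGS. The value is the raw area under the fraction-flipped curve over 0-4 h after rhamnose induction (AUC4h), with ≥20 reads per time point. It is not background-subtracted; inactive controls average about 0.047.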
# 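Further: Bxb1 expression induced with 0.2% (w/v) L-rhamnose at OD600 near 0.5, cultures sampled hourly, flipped fraction per protease–substrate barcode pair counted by paired-end Illumina sequencing.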
Variant,area with substrate ENLAFQS,area with substrate ENLDFQS,area with substrate ENLFFQS,area with substrate ENLGFQS,area with substrate ENLHFQS,area with substrate ENLIFQS,area with substrate ENLKFQS,area with substrate ENLLFQS,area with substrate ENLNFQS,area with substrate ENLPFQS,area with substrate ENLSFQS,area with substrate ENLVFQS,area with substrate ENLWFQS,area with substrate ENLRFQS,area with substrate ENLCFQS,area with substrate ENLEFQS,area with substrate ENLQFQS,area with substrate ENLMFQS,area with substrate ENLTFQS
T129Q,0.0769,0.0757,0.0648,0.0559,0.0512,0.0737,0.0593,0.0605,0.0621,0.0598,0.0624,0.072,0.0625,,,,,,
D161K,0.0562,0.063,0.0632,0.0459,0.058,,0.0649,0.0518,0.061,0.0508,0.0674,,,0.0715,,,,,
D161C,0.0605,0.0591,0.0674,0.0647,0.0413,0.0593,0.0745,0.0619,0.0556,0.0666,0.0592,,0.063,0.0672,0.0574,0.0655,0.0607,,
D161F,0.035,0.0588,0.064,0.059,0.0586,0.0514,0.0423,0.0589,0.066,0.0519,0.0143,,,0.0633,0.0573,,0.0557,,
Q146R,0.0569,0.075,0.0867,,0.0741,0.0838,0.0728,0.0829,0.074,0.0687,0.0664,0.0968,0.0696,0.0627,0.0741,0.067,0.0681,,
G166V,0.0667,,0.0474,,0.0542,,0.0543,0.0571,0.0544,0.0518,0.0598,,0.0496,0.0442,0.0607,0.0534,0.0427,,
T176Y,0.0689,0.0671,0.0612,,0.0561,0.0043,0.0575,0.0473,0.0711,0.0528,,,,0.0357,,0.0452,0.0299,,
H143A,0.0515,0.0612,0.0719,,0.0737,0.0806,0.0698,0.0411,0.0646,0.0737,0.0639,0.0737,0.0661,0.065,0.0483,0.0679,0.0567,,
H143P,0.0649,0.0586,0.0596,0.0656,,0.0507,0.05,0.0321,0.0667,0.0623,0.053,,0.0505,0.0669,,0.0639,0.0497,,
H143C,0.0608,0.063,0.0642,,0.0598,,0.0719,0.0584,0.0592,0.0447,0.0642,0.0915,0.0391,0.0517,,,,0.0565,
F180L,0.0902,,0.115,0.0753,0.0694,0.0777,0.0906,,0.0617,,,,,,0.107,,0.0729,,
F180V,0.0252,0.0673,0.0705,,0.0613,0.0659,0.0451,0.0683,0.0571,0.0329,,0.0663,,0.0671,,0.084,0.0717,0.0517,
S169T,0.0749,0.0634,0.0887,,0.0687,0.0856,0.083,,0.0623,0.0571,0.0576,0.0856,,0.0818,0.0768,0.0503,0.0868,0.0683,0.0689
D137L,0.087,,0.0796,,,0.074,0.0835,,0.0757,0.0721,0.0654,0.0843,,0.0593,0.0819,0.0749,,,0.067
D137N,0.0794,0.0466,0.0901,,0.08,0.0881,0.0773,0.0619,0.0672,0.0708,0.0646,,0.0662,0.0692,0.0688,0.0936,0.072,0.0627,
D137R,0.0718,0.0669,0.0756,,0.0536,,0.0505,0.0454,0.0632,0.0611,0.0631,,0.0661,0.0748,0.051,0.0711,,,
F140K,0.0687,0.0732,0.078,,0.108,0.0947,0.0654,,0.0841,0.0632,0.0493,,,0.071,,0.0557,,,
F140C,0.0643,0.0619,0.0666,,,0.0614,0.0662,0.0681,0.0706,0.0626,0.066,0.0555,0.056,0.0729,0.0561,0.0687,0.0612,,
F173A,0.0629,0.0823,0.0885,0.0755,0.0696,0.0806,0.0754,0.0489,0.0527,0.0587,0.0631,0.06,0.0669,0.0704,0.056,0.0895,0.0609,0.0727,
F173D,0.0596,0.0616,0.0749,0.0662,0.0657,0.0697,0.0599,0.061,0.0609,0.0664,0.069,,0.0634,0.0598,0.0611,0.0657,0.0794,,
K142F,0.0719,0.0649,0.0739,,0.0625,0.0953,0.0695,0.0818,0.0713,0.055,0.0571,,0.0687,0.0637,0.0503,0.0597,0.0605,0.0842,
K142E,0.0586,0.0635,0.092,,0.0648,,0.0728,0.0337,0.0782,0.0585,0.0814,0.0715,0.062,0.0704,0.0683,0.0549,0.0634,0.0848,
K142S,0.073,0.0616,0.113,,0.0643,,0.104,0.0866,0.0685,,0.0741,0.0564,,0.0603,,0.101,0.0519,,0.0715
L156W,0.0629,0.0627,0.0585,0.0727,0.0633,0.0606,0.0642,0.0657,0.0659,0.0591,0.062,0.0589,0.0629,0.057,0.06,0.0691,0.0539,0.109,
